The values that follow come from PubChem BioAssay AID463173 (ICCB-Longwood Screening Facility, Harvard Medical School, 2010).

The whole screen tested about 52,000 compounds, of which about 4,300 (8.3%) were called active. Cut-off read from the data, not from the text of the source: active = survival mostly below about 52% (no sharp cut-off); inactive = mostly above about 56%. The list shows a part of the results.

This experiment concerns DeltatarO mutant. The experiment in a line: growth inhibition of S. aureus wild type versus tarO mutant, primary screen, teichoic acid synthesis inhibitors, RN4220, OD600 (AID 463173). To be noted: OD600, 18 h, stronger effect = lower value, screened at 18.75 µg/mL (by protocol).
`O=C(NC1CC(=O)N(c2cccc(F)c2)C1)c1ccc(S(=O)(=O)N2CCCCC2)cc1` (centres undefined): the survival is inactive: 91%.

Turning to `COc1ccc(OC)c(-n2nnc(-c3nc(-c4ccc5c(c4)OCO5)no3)c2C)c1`, the survival is inactive: 75%.

In the case of `COC(=O)c1ccccc1NC(=O)CCn1c(=O)c2cccn2c2cccnc21`, the survival is inactive: 80%.

Regarding `Cc1ccc(OCC(=O)Nc2nnc(SCc3cc(=O)n4cc(C)ccc4n3)s2)cc1`, the survival was active: 6%.

As to `COc1ccc(C(=O)Nc2cc(-c3nc4ncccc4o3)ccc2C)cc1Br`, the survival was active: 40%.

Turning to `CCCOc1ccccc1C(=O)N1CCCCC1CCN1CCCCC1` (centres undefined), the survival was inactive: 89%.

For `CCC(=O)N1c2ccccc2CC1C(=O)NCCc1ccccc1OC` (centres undefined), the survival is inactive: 123%.

Regarding `CCc1ccc(-n2nc(C)c3c(C(=O)Nc4ccc(Cl)cc4)cc(C)nc32)cc1`, the survival is inactive: 66%.

Take `CCCCNC(=O)CSc1nc(-c2ccc(OC)cc2)cc(C(F)(F)F)n1`: the survival was inactive: 66%.

With `Cc1ccc(C)c(-c2ccc(=O)n(C(C)C(=O)Nc3ccccc3C(F)(F)F)n2)c1` (centres undefined), the survival was active: 41%.

As to `COc1cccc(-n2ccnc2SCC(=O)Nc2nc3ccc(C)cc3s2)c1`, the survival was inactive: 116%.

With `CC(=O)Nc1c(C)nn(-c2ccccc2)c1N1CCC(C(=O)Nc2ccc(C)cc2Cl)CC1`, the survival is inactive: 72%.

As for `CCOC(=O)C1CCCN(C(=O)c2ccc(C)c(NC(=O)c3nsc4ccccc34)c2)C1` (centres undefined), the survival was inactive: 119%.

For `COc1cccc(NC(=O)CSc2nnc3[nH]c(=O)cc(-c4ccccc4)n23)c1`, the survival was inactive: 107%.

For the compound `CCCc1nc2nc(C)c(NS(=O)(=O)c3ccc(C)c(C)c3)c(=O)n2[nH]1`, the survival is inactive: 129%.

In the case of `CCc1ccc(NS(=O)(=O)c2cc(Br)cc3c2N(C(C)=O)CC3)cc1`, the survival was inactive: 53%.

In the case of `CC(=O)Nc1ccc(NC(=O)c2ccc3c(c2)CCN3S(=O)(=O)c2ccc(Cl)cc2)cc1`, the survival is inactive: 113%.

As to `COc1ccc(OCc2nc(-c3ccc(OC)c(OC)c3)no2)cc1`, the survival is inactive: 61%.

As to `CC(=O)Nc1ccc(C)cc1-c1nc2ccccc2n(Cc2cccc(Br)c2)c1=O`, the survival was inactive: 69%.

As for `CCN(CC)S(=O)(=O)c1cccc(C(=O)Nc2ccccc2)c1`, the survival was inactive: 102%.

As to `Cc1ccccc1-c1nnc(SCC(=O)N2CCCc3ccccc32)o1`, the survival is active: 9%.

Consider `COc1ccc(N2CCN(C(=O)c3c(C)oc4nc(C)nc(N5CCCC5)c34)CC2)cc1`, for which the survival is inactive: 94%.

With `Cc1ccc(N(C)S(=O)(=O)c2c(-c3ccccc3)csc2C(=O)O)cc1`, the survival is inactive: 59%.

As to `CCCCCn1c(Br)nc2c1c(=O)n(CC(N)=O)c(=O)n2C`, the survival was inactive: 80%.

For `Cc1cccc(OCc2nnc(SC(C)C(=O)O)n2Cc2ccccc2)c1` (centres undefined), the survival was inactive: 103%.

Take `Cc1cc2nc(-c3cccc(NC(=O)COc4ccc(C(C)C)cc4)c3)oc2cc1C`: the survival is inactive: 50%.

On to `COc1ccc(Cl)cc1NC(=O)c1cc2ccccn2n1`, for which the survival is inactive: 124%.

Consider `Cc1nc2nncn2c(Nc2ccc(F)cc2)c1C`, for which the survival was inactive: 77%.

Regarding `COc1cccc(-n2c(=O)c3sccc3n(Cc3cc(=O)n4cc(Cl)ccc4n3)c2=O)c1`, the survival is inactive: 82%.

As for `CCC(=O)N1CCc2cc(S(=O)(=O)NCCC(=O)NCc3ccc(OC)cc3)ccc21`, the survival was inactive: 92%.

Take `O=c1cc(CSc2nnc(COc3ccccc3)o2)c2ccccc2[nH]1`: the survival is inactive: 107%.

`CCCNC(=O)c1c(NC(=O)c2ccccc2F)sc2c1CCCCC2`: the survival is inactive: 79%.

On to `Cc1nc(-c2ccc(S(=O)(=O)Nc3ccc(OC(F)(F)F)cc3)cc2)co1`, for which the survival is inactive: 78%.

As to `Cc1ccc(NC(=O)N2CCC(CN3CCCCCC3)CC2)c(Cl)c1`, the survival is inactive: 84%.

`CC(C)c1ccc(N2C(=O)CSC23C(=O)N(Cc2ccccc2F)c2ccccc23)cc1` (centres undefined): the survival is inactive: 79%.

Consider `Cc1ccc(-c2nc(C(=O)Nc3cccc(C#N)c3)c3n2CCCCC3)cc1`, for which the survival was inactive: 88%.

`Cc1cccc(C(=O)OCc2cc(=O)n3nc(C4CC4)sc3n2)c1`: the survival is inactive: 97%.

Regarding `COc1ccc(-c2nc(SCC(=O)Nc3ccc4c(c3)OCO4)c(-c3ccc(F)cc3)[nH]2)cc1OC`, the survival is inactive: 86%.

Take `O=C1c2ccccc2C(=O)C1(c1ccccc1)N1CCN(c2cccc(C(F)(F)F)c2)CC1`: the survival was inactive: 96%.

For `CCOc1ccccc1NC(=O)CCc1nc(-c2cccc(C)c2)no1`, the survival was inactive: 73%.

Regarding `CC(C)Oc1ccc(CNS(=O)(=O)c2csc(C(N)=O)c2)cc1`, the survival is inactive: 101%.

On to `Cc1ccc2c(c1)N(CC(=O)NCCCN1CCCCC1)C(=O)c1cccnc1O2`, for which the survival is inactive: 68%.

For the compound `COc1ccccc1CNC(=O)CCCN1C(=O)CCn2nc(-c3cn(C)c4ccccc34)cc21`, the survival was inactive: 89%.

For the compound `Cc1cc(NS(=O)(=O)c2ccc(NC(=S)NC(=O)c3ccccc3)cc2)no1`, the survival was inactive: 79%.

As for `CC(C)C(=O)Nc1c(C(=O)N2CCN(c3ccccc3F)CC2)oc2ccccc12`, the survival is inactive: 58%.

In the case of `Fc1ccc(C(c2nnc(-c3ccccc3)o2)N2CCN(c3ccccc3)CC2)c(Cl)c1` (centres undefined), the survival is inactive: 84%.

For the compound `Cc1ccc(C(=O)Nc2cc3cc(Cl)ccc3oc2=O)cc1`, the survival is inactive: 68%.

In the case of `CCCn1c(N2CCN(Cc3ccc(Cl)cc3)CC2)nc2ccccc21`, the survival is inactive: 91%.

With `Cc1ccc(-c2nc(CCNC(=O)C(=O)Nc3ccc(F)cc3F)cs2)cc1`, the survival is inactive: 91%.

In the case of `CCOC(=O)c1ccc(NC(=O)C(=O)NCCc2ccc(OC)cc2)cc1`, the survival was inactive: 74%.

Take `Cc1ccc(C)c(NC(=O)Cn2c(-c3nonc3N)nc3ccccc32)c1`: the survival was inactive: 71%.

As to `CCC(CC)N1CCN(S(=O)(=O)c2ccc(NC(C)=O)cc2)CC1`, the survival is inactive: 83%.

With `COc1ccc2oc(=O)c(C(=O)N3CCN(c4cc(Cl)ccc4Cl)CC3)cc2c1`, the survival is active: 48%.

Turning to `COc1ccccc1N1CCN(C(=O)c2cnn(C(C)(C)C)c2C2CCN(C(=O)OC(C)(C)C)CC2)CC1`, the survival is inactive: 120%.

For the compound `CCOc1ccc2c(O)csc2c1`, the survival was inactive: 90%.

Consider `CCOc1ccc(S(=O)(=O)N(C(C)=O)c2ccc3oc(C)c(C(=O)OC)c3c2)cc1`, for which the survival was inactive: 162%.

Consider `COc1cc(Cl)c(C)cc1NC(=O)c1nn(-c2ccc(C)cc2)c(=O)n(C)c1=O`, for which the survival was inactive: 55%.

Consider `Cc1ccc(CSc2nc3ccncc3n2Cc2nc(-c3ccc(Cl)cc3)oc2C)cc1`, for which the survival is inactive: 63%.

On to `CCOc1ccc(N2CC(NC(=O)c3cc4ccccc4o3)CC2=O)cc1` (centres undefined), for which the survival is inactive: 94%.

`COC(=O)CSc1nc(-c2ccccc2)cc(C(F)(F)F)n1`: the survival was inactive: 88%.

Consider `COc1cccc(NC(=O)CSc2c(C)cnc3c2c(=O)n(C)c(=O)n3C)c1`, for which the survival was inactive: 115%.

Take `CCCOC(=O)c1c(NC(=O)c2cc3nc(-c4ccc(OC)cc4)cc(C(F)(F)F)n3n2)sc2c1CCCC2`: the survival is inactive: 119%.

`CCOC(=O)c1ccc(NC(=O)c2nsc3ccccc23)cc1`: the survival is inactive: 60%.

As to `CN1CCc2nc3sc(C(=O)Nc4c(F)cccc4F)c(N)c3cc2C1`, the survival is inactive: 153%.

In the case of `CCOc1ccc(NC(=O)Cn2c(=O)c(CNc3ccc(OC)cc3)cc3ccc(OC)cc32)cc1`, the survival is inactive: 71%.

Consider `Cc1ccc(-c2cnc(NCc3c(F)cccc3Cl)n2C)cc1`, for which the survival was active: -4%.

`CCOC(=O)c1cc(S(=O)(=O)N2CCN(c3cc(Cl)ccc3C)CC2)[nH]n1`: the survival was inactive: 109%.

Take `COc1ccc(C(=O)Nc2nc3nc(C)c(Cl)c(=O)n3[nH]2)cc1`: the survival was inactive: 100%.

Regarding `COc1ccc(OC)c(NC(=O)C(NS(=O)(=O)c2ccc3c(c2)CCCC(=O)N3)C(C)C)c1` (centres undefined), the survival is inactive: 78%.

As to `COc1cccc(NC(=O)c2nnn(Cc3cccc(C(F)(F)F)c3)c2N)c1`, the survival is inactive: 67%.

`COc1ccc(NS(=O)(=O)c2ccc3c(c2)oc(=O)n3C)cc1Cl`: the survival is inactive: 86%.

`COc1ccc(OC)c(S(=O)(=O)Nc2ccc3[nH]c(=O)[nH]c3c2)c1`: the survival is inactive: 79%.

Regarding `Cc1cccc(CN2C(=O)c3ccccc3S(=O)(=O)c3ccc(C(=O)N4CCCC4)cc32)c1`, the survival is inactive: 72%.

With `CCc1ccc(OCC(=O)Nc2c(C(=O)c3ccccc3)oc3ccccc23)cc1`, the survival was inactive: 66%.

Consider `CN(C)c1ccc(C(C(=O)NCC2CCCO2)N(C(=O)Cn2nnc3ccccc32)c2ccc3c(c2)OCO3)cc1` (centres undefined), for which the survival was inactive: 90%.

Take `Cc1ccccc1NC(=O)CCc1c(C)nc2c(c1C)c(=O)n(C)c(=O)n2C`: the survival was inactive: 100%.

Turning to `COC(=O)/C=C1/C(=O)N(C(C)=O)c2ccccc21`, the survival was inactive: 90%.

Turning to `CCCN(C(=O)Cn1cnc2sc(C)c(S(=O)(=O)N3CCN(c4ncccn4)CC3)c2c1=O)c1cccc(C)c1`, the survival was inactive: 84%.

As for `Cc1cc(C)cc(N(C)S(=O)(=O)c2nnc(NC(=O)COc3ccc(Cl)cc3)s2)c1`, the survival is inactive: 80%.

With `CC(=O)c1cccc(NC(=O)CN2C(=O)CN(C)C(=O)c3ccccc32)c1`, the survival is inactive: 88%.

`Cc1cccc(Cn2c(-c3cccs3)nc3ccccc32)c1`: the survival was active: 2%.

`CCOc1ccc(Cn2c(CNS(=O)(=O)c3cccs3)nc3cccnc32)cc1`: the survival is inactive: 99%.

In the case of `Cn1c(=O)c2c(nc(SCC(=O)Nc3ccc(F)cc3)n2Cc2ccc(Cl)cc2)n(C)c1=O`, the survival was active: 31%.

Take `CN1CCN(Cc2cc3sccc3n2Cc2ccc(F)cc2)CC1`: the survival was inactive: 102%.

With `Cc1ccc(N2CCN(c3cc(C)nc4c(-c5ccc(Cl)cc5)c(C)nn34)CC2C)cc1` (centres undefined), the survival is inactive: 55%.

Take `NC(=O)Cn1c(=O)n(-c2ccc(F)c(Cl)c2)c(=O)c2sc3ccccc3c21`: the survival was inactive: 117%.

Consider `CCc1nc(SCc2cc(=O)c3cc(F)ccc3[nH]2)n[nH]1`, for which the survival was inactive: 99%.

For `O=C(Nc1nnc(C2CCCCC2)s1)c1ccc2c(c1)OCO2`, the survival was inactive: 79%.

Turning to `CCN(CC)S(=O)(=O)c1ccc(NC(=O)[C@H](CCSC)N2Cc3ccccc3C2=O)cc1`, the survival was inactive: 65%.
